# Reference: PMC7819943, “Rice protein-binding microarrays: a tool to detect cis-acting elements near promoter regions in rice”
# This is one part of the list.
# Target: T1, OsWOX13 (Oryza sativa, UniProt Q5QMM3 1-267)
# T1 sequence: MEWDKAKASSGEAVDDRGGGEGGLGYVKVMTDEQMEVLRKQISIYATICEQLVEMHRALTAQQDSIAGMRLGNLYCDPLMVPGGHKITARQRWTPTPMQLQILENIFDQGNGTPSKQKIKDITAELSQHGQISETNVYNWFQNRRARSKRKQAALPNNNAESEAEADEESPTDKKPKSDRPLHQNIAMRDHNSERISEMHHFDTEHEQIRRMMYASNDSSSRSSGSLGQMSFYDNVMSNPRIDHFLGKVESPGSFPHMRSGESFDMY
# Assay: protein-binding microarray (RPBM); PBS, 2% BSA, 51.3 ng/ul salmon testes DNA, 50 uM zinc acetate, 200 nM TF, 25 C, 1 h; high values mean tight binding
# Conditions: protein: recombinant; tags: N-terminal polyhistidine and DsRed monomer fusion (pET32a); label: CyDye5-dUTP incorporated in the synthesized complementary strand; 3' TTTTT single-stranded linker to array surface; dsDNA, one strand shown
# Outline: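 The binding signal is fluorescence intensity per array feature (arbitrary units). Readings came from an Axon 4000B scanner after a washed, 2% BSA-blocked, double-stranded custom Agilent array had been incubated for 1 h at 25 °C with 200 nM protein and 50 µM zinc acetate. The protein was a Ni–NTA-purified transcription factor fused N-terminally to polyhistidine and DsRed, expressed in E. coli BL21-CodonPlus.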
row,Sequence,binding signal
1,ATCATTAACTGCGCCACAACAAATCAACAGTCATCAAGACCGGAGTCACCTAGTGCAG,8630 fluorescence intensity (a.u.)
2,GACGACATTAATTTGAGAGAATATGGTTTCAACCGAACCACGGAGTCACCTAGTGCAG,5210 fluorescence intensity (a.u.)
3,GCATAAAATATTAATCATGTTTTATCATCTCACAACAATGCGGAGTCACCTAGTGCAG,4640 fluorescence intensity (a.u.)
4,TTTAATCTAAATTTGGTACATTAGAGGCCAGGGATGTTCTCGGAGTCACCTAGTGCAG,10600 fluorescence intensity (a.u.)
5,AAATTTGCATAATTATGAAATAACATATCACATATTAATCCGGAGTCACCTAGTGCAG,16900 fluorescence intensity (a.u.)
6,ATTCTGATTGGCAAGTTGGTTATTCCTTTTCTGATTGGTTCGGAGTCACCTAGTGCAG,60700 fluorescence intensity (a.u.)
7,GGTGCCAATTATGACCCATCACTGATAAGGGAAAATTCAACGGAGTCACCTAGTGCAG,14300 fluorescence intensity (a.u.)
8,TTGTGGTGATTGAGAGGGTTTGAAAGGGGTTGATGTGTGGCGGAGTCACCTAGTGCAG,40000 fluorescence intensity (a.u.)
9,ATACAACCTAAATTTACCAATTAATCCAAATATAACTATTCGGAGTCACCTAGTGCAG,5660 fluorescence intensity (a.u.)
10,AAGAAATTAATTGTTGAAAAGATATCATCCAGCACCCCTACGGAGTCACCTAGTGCAG,24200 fluorescence intensity (a.u.)
11,CGCTAATTTATTAGGTATGACCTTGTTTATAGGGTTCTCACGGAGTCACCTAGTGCAG,23300 fluorescence intensity (a.u.)
12,AAATTAATTTATTAAAGCTTCATCATGGACATGTTCTCGGCGGAGTCACCTAGTGCAG,26100 fluorescence intensity (a.u.)
13,GCAAACATATTGTGTTTATCAATCTAAATCACAAGAAGATCGGAGTCACCTAGTGCAG,4130 fluorescence intensity (a.u.)
14,GGAAGGAATCGGTTTCTGATGATTGATGAACAGTAAAATCCGGAGTCACCTAGTGCAG,5290 fluorescence intensity (a.u.)
15,TTACATATTAACTTGAGATGATCGGAATCACAATTGCAGACGGAGTCACCTAGTGCAG,3320 fluorescence intensity (a.u.)
16,CCAAGACATAATGTGTGTATGACAGATGGGACCATATATTCGGAGTCACCTAGTGCAG,4220 fluorescence intensity (a.u.)
17,TTGAATAAGTGATTGATGATATTAATACTCTATCGTGGTACGGAGTCACCTAGTGCAG,40000 fluorescence intensity (a.u.)
18,TAGAATCATAATAGAATATAATTAGTGTTATTCCTGGCAACGGAGTCACCTAGTGCAG,9980 fluorescence intensity (a.u.)
19,CACAATTGGCCCGTTTATTCTGTTCTATCCACGACTCTCTCGGAGTCACCTAGTGCAG,6440 fluorescence intensity (a.u.)
20,TTGAAATTTGATAAAATTCAATCCAAATTTGAAACTTTCTCGGAGTCACCTAGTGCAG,11600 fluorescence intensity (a.u.)
21,CTAAATGCTGAAGAGATGATAGATTATCTGATTTTATGATCGGAGTCACCTAGTGCAG,3740 fluorescence intensity (a.u.)

row,Sequence,binding signal
1,TTCTTGTTGAAATTTGTAATTTATGATGCATGAGGCCACACGGAGTCACCTAGTGCAG,6120 fluorescence intensity (a.u.)
2,CGTATACGCTAATTAGCAAATCTAGTACAATAGTACTATGCGGAGTCACCTAGTGCAG,32700 fluorescence intensity (a.u.)
3,ATTGATTTGAGAGAGAAACAATAATTTTGTAGTGTTCTATCGGAGTCACCTAGTGCAG,32400 fluorescence intensity (a.u.)
4,GAGTTAGATTGAGAAGTTATAACCATGTCAAACATGCTCTCGGAGTCACCTAGTGCAG,24700 fluorescence intensity (a.u.)
5,GCGCTGATACTTGTAATCAATCAACTCATCAGCATGGTCTCGGAGTCACCTAGTGCAG,26100 fluorescence intensity (a.u.)
6,ATAGTGATATAAATAATAATTACTATTTGTTGCCTTCTTTCGGAGTCACCTAGTGCAG,7510 fluorescence intensity (a.u.)
7,CTGTTTAATTAATGAGAGGTACCGTATTGTTTTCTTTTCACGGAGTCACCTAGTGCAG,17600 fluorescence intensity (a.u.)
8,GAACTGTACGGCTCAGATTAATTGATCAGCTGCTCCTCGCCGGAGTCACCTAGTGCAG,4370 fluorescence intensity (a.u.)
9,GGTAGATAGATGCAGTGATCGATGCACTAGTATTACATGGCGGAGTCACCTAGTGCAG,5460 fluorescence intensity (a.u.)
10,TATCTTCATGATTGACTACCTTTCTAACTACAAGTTGTAACGGAGTCACCTAGTGCAG,25000 fluorescence intensity (a.u.)
11,TTAGATTAGATGGATAGTATTGTATTATATCCGATTTGTTCGGAGTCACCTAGTGCAG,27500 fluorescence intensity (a.u.)
12,GCAGAAATGATTGCACTTCAATTATTGAGTAAAACAGATTCGGAGTCACCTAGTGCAG,30000 fluorescence intensity (a.u.)
13,CACATAATTTTGGGTATTATGGTTTAAAAGTTTCACAAAACGGAGTCACCTAGTGCAG,3600 fluorescence intensity (a.u.)
14,TTGCAGATGCAAATTAATTCCTATATATATATGAACGCTGCGGAGTCACCTAGTGCAG,4070 fluorescence intensity (a.u.)
15,TTAAACAGGATATGGAGGATTTTCTTACTTAATGGAGCCTCGGAGTCACCTAGTGCAG,12100 fluorescence intensity (a.u.)
16,CGTATAGATAATTTTGGATTTGAGTTTTATGGCTCCTGTTCGGAGTCACCTAGTGCAG,6510 fluorescence intensity (a.u.)
17,TGTAGATTAGATCCCTCGGTGGTTTTGCACCCGGTTTTGTCGGAGTCACCTAGTGCAG,6030 fluorescence intensity (a.u.)
18,TATAATTAACAAACAAAATTCAGAATGATCAAACTGGCTACGGAGTCACCTAGTGCAG,18800 fluorescence intensity (a.u.)
19,TTCGACAAATTAAGGTGCCACTCACAGAAGCTAAGCACTGCGGAGTCACCTAGTGCAG,3710 fluorescence intensity (a.u.)
20,ATAATTCTTGACGATAAACTAATTGTTGCCCAAAATCCAACGGAGTCACCTAGTGCAG,3330 fluorescence intensity (a.u.)
21,GTGTTTGATTATTCGTTCCGGTGTGCGCGAAAGCGGGGAACGGAGTCACCTAGTGCAG,7540 fluorescence intensity (a.u.)
